Among all 310,000 compounds or so, about 2,200 (0.71%) showed an effect of 50% or more. Effects have a minus sign here. The list shows a part of the results.
The molecules below were run against human ether-à-go-go-related gene (hERG) potassium channel (human, UniProt Q12809) (assay: primary screen, population patch clamp on CHO cells stably expressing hERG).
Chain of human ether-à-go-go-related gene (hERG) potassium channel (Q12809 whole entry, looked up): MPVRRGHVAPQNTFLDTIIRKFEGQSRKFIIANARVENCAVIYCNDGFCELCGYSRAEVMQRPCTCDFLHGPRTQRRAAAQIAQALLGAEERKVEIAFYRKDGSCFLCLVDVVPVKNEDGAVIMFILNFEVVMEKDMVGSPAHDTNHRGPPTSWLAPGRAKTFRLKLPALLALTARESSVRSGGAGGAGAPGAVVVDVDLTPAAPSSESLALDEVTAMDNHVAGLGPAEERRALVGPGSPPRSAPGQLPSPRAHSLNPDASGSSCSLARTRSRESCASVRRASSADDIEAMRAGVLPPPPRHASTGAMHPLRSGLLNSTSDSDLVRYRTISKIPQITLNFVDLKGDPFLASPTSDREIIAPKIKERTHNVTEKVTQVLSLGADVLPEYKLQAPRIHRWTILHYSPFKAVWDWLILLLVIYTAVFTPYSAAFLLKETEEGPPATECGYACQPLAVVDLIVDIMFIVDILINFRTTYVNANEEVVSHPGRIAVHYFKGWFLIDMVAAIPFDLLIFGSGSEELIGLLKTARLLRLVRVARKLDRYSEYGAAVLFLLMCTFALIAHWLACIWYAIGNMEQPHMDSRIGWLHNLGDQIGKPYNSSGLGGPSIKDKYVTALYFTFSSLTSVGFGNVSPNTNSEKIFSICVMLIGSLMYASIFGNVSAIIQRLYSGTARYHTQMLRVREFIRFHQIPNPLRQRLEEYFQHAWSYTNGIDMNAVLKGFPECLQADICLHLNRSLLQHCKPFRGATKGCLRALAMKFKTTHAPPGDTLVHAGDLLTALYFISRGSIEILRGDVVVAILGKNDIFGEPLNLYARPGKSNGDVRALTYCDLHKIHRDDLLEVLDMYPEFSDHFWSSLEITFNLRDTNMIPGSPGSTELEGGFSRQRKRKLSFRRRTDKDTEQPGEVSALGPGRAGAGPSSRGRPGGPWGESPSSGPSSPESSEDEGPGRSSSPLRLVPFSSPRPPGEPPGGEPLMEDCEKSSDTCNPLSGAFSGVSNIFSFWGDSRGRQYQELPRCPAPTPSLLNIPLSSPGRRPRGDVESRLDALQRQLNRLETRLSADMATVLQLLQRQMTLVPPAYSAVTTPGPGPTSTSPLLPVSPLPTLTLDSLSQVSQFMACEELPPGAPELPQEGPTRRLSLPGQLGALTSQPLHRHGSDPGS

Row | Compound | hERG current change (%, negative = inhibition) at 1uM [%]
1 | O=C(NCCCCO)C(F)(F)C(F)(F)C(F)(F)C(=O)NCCCCO | 14.4
2 | Brc1ccccc1-c1nnc(CSc2nnnn2-c2ccccc2)o1 | 17
3 | Cc1onc(-c2ccccc2Cl)c1C(=O)Nc1nnc(Cc2ccc(Cl)cc2)s1 | 6.01
4 | CC(NS(=O)(=O)c1ccc(OCC(=O)N2CCOCC2)cc1)c1ccccc1 (stereo not shown) | 11.5
5 | O=S(=O)(NCCCNS(=O)(=O)c1c(F)cccc1F)c1ccc2c(c1)OCCO2 | 10.2
6 | NS(=O)(=O)c1ccc(NC(=S)Nc2ccn(Cc3cccc4ccccc34)n2)cc1 | 11.6
7 | O=C(O)c1cc(Nc2nc(N3CCOCC3)nc(N3CCOCC3)n2)ccc1Cl | 16
8 | CCOc1ccc(S(=O)(=O)N2CCN(CN3C(=O)CC4(CCCC4)C3=O)CC2)cc1 | 4.51
9 | O=C(Cc1cc(=O)[nH][nH]1)N/N=C/c1ccccc1[N+](=O)[O-] | 4.53
10 | CCCC(=O)NC(c1ccccc1)c1ccc2cccnc2c1O (stereo not shown) | 7.24
11 | COc1ccc(C2C(C#N)=C(N)Oc3cccc(O)c32)cc1 (stereo not shown) | 17.2
12 | COc1ccc(S(=O)(=O)N2CCC(C(=O)NCc3ccccn3)CC2)cc1C | 1.44
13 | O=C(CN(Cc1ccc(Cl)c(Cl)c1)S(=O)(=O)c1ccccc1)N/N=C\c1ccc2c(c1)OCO2 | 5.91
14 | Cc1ccc(S(=O)(=O)CCC(=O)Nc2nc3c(s2)CCCC3)cc1 | 4.76
15 | CC(=O)Nc1ccc(NC(=O)c2cc([N+](=O)[O-])cc([N+](=O)[O-])c2)cc1 | 23.8
16 | Nc1nnc(CC2=CCCCC2)s1 | 13
17 | Cc1ccc(NC(=O)C(C)SCc2nc3sc(C)c(C)c3c(=O)[nH]2)nc1 (stereo not shown) | -2.28
18 | Cc1ccc(/C(O)=C2\C(=O)C(=O)N(C)C2c2cccc([N+](=O)[O-])c2)cc1 (stereo not shown) | 14.9
19 | CCn1c(SCc2ccc(F)cc2)nnc1C1CCN(S(=O)(=O)c2ccc(OC)cc2)CC1 | -18.8
20 | CCN1C(=O)C(=C2C=C(C)OC(C)=C2)C(=O)N(CC)C1=S | 9.14
21 | Cc1cccn2c(=O)c(/C=C(\C#N)S(=O)(=O)c3ccccc3)c(N3CCN(c4ccccc4)CC3)nc12 | 18.2
22 | CC(C)C(C)NC(=O)COc1ccc(S(=O)(=O)N2CCOCC2)cc1Cl (stereo not shown) | 11.9
23 | CC1CCCN(S(=O)(=O)c2cc3c4c(c2)CCN4C(=O)CC3)C1 (stereo not shown) | 6.9
24 | CCNC(=S)NN=C1c2ccccc2-c2ccccc21 | 9.39
25 | O=C1C2=C(C(c3ccccc3)=NCCN2)C(c2cccc([N+](=O)[O-])c2)N1c1ccccc1 (stereo not shown) | 6.18
26 | COP(=S)(OC)SCN1C(=O)c2ccccc2C1=O | 14.5
27 | O=C(NN1C(=O)c2ccc3c4c(ccc(c24)C1=O)CC3)c1ccc(Br)cc1 | 6.25
28 | CC(C)c1cc(C(=O)NCc2cccnc2)no1 | -5.86

Row | Compound | hERG current change (%, negative = inhibition) at 1uM [%]
29 | CCCCn1c(N)c(C(=O)NCc2cccs2)c2nc3ccccc3nc21 | -0.982
30 | CC(=O)N1CCN(Cc2nc3cc(NC(=O)C4CCCCC4)ccc3n2C)CC1 | -4.74
31 | O=C(CSc1nnc(-c2ccccc2F)o1)NC(=O)Cc1ccccc1 | 10.3
32 | CCN(c1ccccc1)S(=O)(=O)c1ccc(OCc2c(C)noc2C)cc1 | 2.73
33 | CCOC(=O)N1CCC(n2c(SCC(=O)OCc3ccccc3)nc3ccsc3c2=O)CC1 | -4.04
34 | CC(=O)C1=C(C)NC(=O)NC1/C=C/c1ccccc1 (stereo not shown) | 8.73
35 | COc1cc(CNn2cn[nH]c2=S)cc(Cl)c1OCc1ccccc1 | 12.9
36 | Cc1ccc2c(c1)-c1c(cnn1CC(=O)N(CCC#N)c1ccccc1)CO2 | -29
37 | CCOC(=O)C1C(=O)N(O)CC1c1cccc(Oc2ccccc2)c1 (stereo not shown) | 13.9
38 | CCn1c(C(=O)NCCCN2CCc3ccccc3C2)cc2sccc21 | -48.1
39 | COc1ccc(NC(=O)C2CCCN(C)C2)cc1OCC(C)C (stereo not shown) | -2.36
40 | COc1ccc(N2C(=O)CC(N(CCc3ccccc3)C(=O)/C=C/C(=O)O)C2=O)cc1 (stereo not shown) | 3.01
41 | C=CCNc1nnc(C)c2ccccc12 | 12.2
42 | COCCN(Cc1cc2cc(C)c(C)cc2nc1Cl)C(=O)Nc1ccccc1 | 10.7
43 | N/C(=N\OS(=O)(=O)c1ccccc1)c1ccccn1 | -4.14
44 | CC(C)c1c(C(=O)N/N=C/C2CC=CCC2)nnn1-c1nonc1N (stereo not shown) | 6.89
45 | Cc1cccc(NC(=O)CNC(=O)C(NC(=O)Cc2ccccc2)C(C)C)c1C (stereo not shown) | 3.64
46 | Fc1cccc(CN2CCN(C(=S)NCCc3ccccc3)CC2)c1 | 3.14
47 | Cn1c(N)c(C(=O)COC(=O)c2cc(C3CC3)nc3ccccc23)c(=O)n(C)c1=O | -17.7
48 | CC(Sc1nnnn1C)C(=O)Nc1nc(-c2ccc(F)c(F)c2)cs1 (stereo not shown) | 1.16
49 | CCOc1ccccc1NC(=O)c1ccc(C(=O)Nc2ccccc2OCC)nc1 | 20.3
50 | CN(Cc1ccccc1)C(=O)c1ccccc1-c1ccccc1 | 6.36
51 | O=C1C(Oc2ccc(Cl)cc2)C(c2ccc3c(c2)OCO3)N1CC1CCCO1 (stereo not shown) | 4.94
52 | Cl.c1ccc(C2CC2)c(OCC2=NCCN2)c1 | 7.71
53 | CCO[C@H]1OC(C(=O)N2CCN(C)CC2)=C[C@@H](c2csc3ccccc23)[C@@H]1CCCO | 3.77
54 | CCN(CC(=O)NC(c1ccccc1)c1ccccc1)Cc1nc2ccccc2c(=O)[nH]1 | 9.16
55 | COC(=O)c1ccc(N2C(=O)CC(NCc3ccccc3)C2=O)cc1 (stereo not shown) | 10.7

Reference: publication PMC4336329 (PLoS ONE, 2015)
